The structures appear in SMILES notation. Out of some 48,000 compounds screened, about 120 (0.25%) were called active. Not shown: some 4% with an inconclusive outcome. Calls follow the shape of the dose curve; as a rule, active = well fitted activation curve with a large enough effect; inconclusive = small, poorly fitted or top-dose-only effect, or another doubt; inactive = no such curve, though single readings can be large or run the other way. This is one part of the list.

The experiment is described as follows: Primary qHTS for Identification of Small Molecule Activators of Huntingtin-Antisense Promoter Activity. Also: nearly all actives have a fitted effect of over 55% in size. The conditions noted are these: HEK293 HTT-AS promoter firefly luciferase reporter, 24 h; series mostly up to 57.5 µM; activity change, positive = activation: at the top concentration. In outline: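 Quantitative HTS used concentration series of up to 57.5 uM final on HEK293 luciferase reporter cells, 24 h at 37 degrees C. Readout was Dual-Glo firefly luminescence.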
(In general: qHTS replaces the single test concentration by a dilution series.)
Take `COc1ccc(-c2ccc(NS(=O)(=O)c3ccc(OC)c(OC)c3)cc2)nn1`: the “activity change, positive = activation” value is inactive: -12.1%.

With `COC(=O)c1ccccc1NC(=O)c1c(C)oc2ncn(C)c(=O)c12`, the “activity change, positive = activation” value is inactive: -11.3%.

Take `COc1ccc(OCc2nc3ccccc3n2Cc2ccccc2Cl)cc1`: the “activity change, positive = activation” value is inactive: -15.6%.

Consider `CCCCC(=O)N(c1ccc2oc(C)c(C(C)=O)c2c1)S(=O)(=O)c1ccc(F)cc1C`, for which the “activity change, positive = activation” value is inactive: -28.9%.

For `O=C(CSc1nnc(-c2cccc(F)c2)c(-c2cccc(F)c2)n1)NC1CCCCC1`, the “activity change, positive = activation” value is inactive: -7.46%.

Regarding `O=C(Cn1ncc2c(=O)oc3ccccc3c21)N1CCN(c2ccc(Cl)cc2)CC1`, the “activity change, positive = activation” value was inactive: 5.77%.

Take `COc1cccc(CSc2nc(-c3ccccc3F)nc3c2Cc2c(CO)cnc(C)c2O3)c1`: the “activity change, positive = activation” value is inactive: -10.1%.

For the molecule `COc1ccc(-n2nc3c(N4CCC(C(=O)NCCc5ccccc5)CC4)nnc(C)c3c2C)cc1`, the “activity change, positive = activation” value is inactive: -18.7%.

For `COc1ccc2cc(CNc3ccc(C)cc3)c(=O)n(CC(=O)Nc3cccc(Cl)c3C)c2c1`, the “activity change, positive = activation” value was inactive: 2.1%.

Turning to `COc1cc(Cl)c(C)cc1NC(=O)c1cnn(-c2ccc(F)cc2F)c1C1CCN(C(=O)OC(C)(C)C)CC1`, the “activity change, positive = activation” value was inactive: -30%.

Regarding `CCOC(=O)c1c(NC(=O)COc2ccccc2Br)sc2c1CCCCC2`, the “activity change, positive = activation” value was inactive: -4.53%.

Consider `Cc1ccc(-c2nnc(Nc3ccccc3)c3ccccc23)cc1S(=O)(=O)N1CCN(C)CC1`, for which the activity change, positive = activation is inactive: 15.6% [at 11.5 µM, percent change from vehicle, -100% = no light].

With `CC(C)(C)c1ccc(C(=O)N(Cc2ccc(F)cc2)Cc2ccco2)cc1`, the “activity change, positive = activation” value is inactive: -27.4%.

With `Cc1ccc(CNC(=O)Cc2ccc(NC(=O)N3CCSc4ncccc43)cc2)cc1`, the “activity change, positive = activation” value was inactive: -6.18%.

`CC(C)(C)NC(=O)N1CCC(C(=O)O)CC1`: the “activity change, positive = activation” value is inactive: 12%.

As to `CCCNC(=O)c1ccc(Cn2c(=O)c3cccn3c3cccnc32)cc1`, the “activity change, positive = activation” value is inactive: -16.7%.

As to `CCc1ccccc1NC(=O)c1ccc2c(c1)nnn2C1CCCC1`, the “activity change, positive = activation” value was inactive: 1.4%.

For `CCOc1ccccc1NC(=O)CN1C(=O)COc2ccc(S(=O)(=O)NC3CCCC3)cc21`, the “activity change, positive = activation” value is inactive: -27.3%.

For `COCCCNC(=O)CCCn1c(=O)c2cccn2c2ccccc21`, the “activity change, positive = activation” value was inactive: -0.751%.

On to `COc1ccccc1CNC(=O)CCC1N=C2c3ccccc3N=C(SCc3ccc(Cl)cc3)N2C1=O` (configuration not stated), for which the “activity change, positive = activation” value is inactive: -10.4%.

As to `O=C1CCCc2cc(S(=O)(=O)NCC3CCC(C(=O)NCc4ccc(F)cc4)CC3)ccc2N1` (configuration not stated), the “activity change, positive = activation” value is inactive: -26%.

As to `O=C(Nc1cccc(C(F)(F)F)c1)c1cccc(C(=O)Nc2cccc(C(F)(F)F)c2)c1`, the “activity change, positive = activation” value was inactive: -30.8%.

Consider `Cc1ccc(N2CCN(S(=O)(=O)c3ccc(Cl)c4ccccc34)CC2)c(C)c1`, for which the “activity change, positive = activation” value was inactive: -13.6%.

Consider `CCOC(=O)c1c(C)c(-c2ccccc2)n(CC(=O)Nc2cc(C)cc(C)c2)c1C`, for which the “activity change, positive = activation” value was inactive: -15.7%.

With `Cc1ccc2c(Br)cc(Br)c(O)c2n1`, the “activity change, positive = activation” value was inactive: -21%.

As to `Cc1ccc(CNC(=O)CCc2cn(Cc3ccc(C)cc3)c3ccccc23)cc1`, the “activity change, positive = activation” value was inactive: -4.79%.

Regarding `CCOc1ccc(-c2cc3nc(C4CCN(C(=O)OC(C)(C)C)CC4)c(C(=O)Nc4c(C)cccc4C)cn3n2)cc1`, the “activity change, positive = activation” value was inactive: 8.89%.

Regarding `Cc1cc(C)c(Cn2c(=O)n(CCCCC(=O)NCc3ccccc3Cl)c(=O)c3ccccc32)c(C)c1`, the “activity change, positive = activation” value is inactive: -12.1%.

For `CCC(=O)Nc1ccccc1-c1nc2ccccc2n(C(CC)C(=O)Nc2cccc(Cl)c2)c1=O` (configuration not stated), the “activity change, positive = activation” value is inactive: -31.2%.

Turning to `CCOC(=O)c1c(C)sc(-c2c(-c3cccc(Cl)c3)[nH]c3c2c(=O)n(C)c(=O)n3C)c1O`, the “activity change, positive = activation” value was inactive: -6.35%.

Take `COc1ccc(NC(=O)C2=C(C)Nc3ncnn3C2c2ccc[nH]2)cc1` (configuration not stated): the “activity change, positive = activation” value is inactive: -7.97%.

In the case of `Cc1c(C(=O)N(C)C)sc2c1c(=O)n(-c1ccc(F)cc1)c(=O)n2Cc1ccccc1C#N`, the “activity change, positive = activation” value was inactive: -3.1%.

`CCc1ccccc1N(C)S(=O)(=O)c1ccc2c(c1)C(C)(C)C(=O)N2C`: the “activity change, positive = activation” value is inactive: -28.1%.

Take `CC(=O)Nc1ccc(NC(=O)C2CCN(c3cnccn3)CC2)cc1`: the “activity change, positive = activation” value is inactive: -9.77%.

On to `CC(=O)N1CCc2cc(CNC(=O)Nc3ccc(Br)c(C)c3)ccc21`, for which the “activity change, positive = activation” value is inactive: -2.24%.

`Fc1ccc2c(c1)-c1c(cnc3cc(-c4ccc(Cl)cc4)nn13)CO2`: the “activity change, positive = activation” value is inactive: 18%.

`C=Cc1ccc(Cn2ccn(-c3ccc(F)c(F)c3)c(=O)c2=O)cc1`: the “activity change, positive = activation” value is inactive: -3.28%.

With `COc1ccc(-c2nc(CSc3nnc(C)n4c3cc3oc(C)cc34)c(C)o2)cc1OC`, the “activity change, positive = activation” value was inactive: -1.42%.

As to `CCn1cc2nc(SCc3ccc(F)cc3)n(CCc3ccccc3)c(=O)c2n1`, the “activity change, positive = activation” value was inactive: -8.59%.

Consider `CCN(CCCNC(=O)c1ccc(Sc2ccc(Cl)cc2)c(NC(C)=O)c1)c1ccccc1`, for which the “activity change, positive = activation” value is inactive: -31.7%.

For the molecule `O=C(c1cccs1)N(Cc1cccnc1)c1nc2c(F)cc(F)cc2s1`, the “activity change, positive = activation” value was inactive: -29%.

Consider `CCN(CC)S(=O)(=O)c1nnc(NC(=O)c2ccc(Br)cc2)s1`, for which the “activity change, positive = activation” value is inactive: -28.8%.

Take `Cc1cc(NC(=O)Cn2c(=O)oc3cc(S(=O)(=O)N4CCCC4)ccc32)ccc1Br`: the “activity change, positive = activation” value is inactive: -25.3%.

On to `COc1ccc(CCNC(=O)C2CCCN(S(=O)(=O)c3ccc4c(c3)oc(=O)n4C)C2)cc1OC` (configuration not stated), for which the “activity change, positive = activation” value is inactive: -32.7%.

On to `O=S(=O)(c1ccccc1)c1nc(-c2cccc(Cl)c2)oc1N1CCOCC1`, for which the “activity change, positive = activation” value was inactive: -13.3%.

For the molecule `CC(C)(C)C(=O)CSc1nc2ccsc2c(=O)n1Cc1ccccc1Cl`, the “activity change, positive = activation” value is inactive: -18.7%.

As to `CSc1ccc(CCNC(=O)c2cc(C)nc3c2c(C)nn3-c2cccc(F)c2)cc1`, the “activity change, positive = activation” value is inactive: -12.1%.

The record behind these values is PubChem BioAssay AID1508624 (National Center for Advancing Translational Sciences (NCATS), 2021).
